Molecules are shown by their SMILES.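 Method: 48-hour compound exposure of cells in 96-well plates, five concentrations, linear interpolation of endpoints. TGI is the concentration that stops growth completely.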 Certain results were filed several times, with different values. The list is limited to them. The source may hold further records. Records of one sample usually come from different ranges of test concentrations, which the source does not state; some values may only mark the edge of a range.

In this test the test system is MDA-MB-468 breast. In words: NCI anticancer screen, dose series, 48 h.

For `CC(=O)c1cc(C(=O)c2ccc3c(c2)Sc2ccccc2N3)n2ccccc12`, the TGI is 19.1 nM and 4.5 µM.

The values above are taken from PubChem BioAssay (NCI).
